# Measured values taken from paper PMC4336329 (PLoS ONE, 2015).
# The campaign covered roughly 310,000 compounds. About 14,000 (4.5%) showed an effect of 50% or more. The effect is printed as a negative number. The list shows a part of the results.
# Target: human ether-à-go-go-related gene (hERG) potassium channel (human, UniProt Q12809)
# Assay: primary screen, population patch clamp on CHO cells stably expressing hERG
# 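Note: peak tail current of the secondary pulse compared with the same well before compound.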
# human ether-à-go-go-related gene (hERG) potassium channel, sequence (Q12809 whole entry, looked up): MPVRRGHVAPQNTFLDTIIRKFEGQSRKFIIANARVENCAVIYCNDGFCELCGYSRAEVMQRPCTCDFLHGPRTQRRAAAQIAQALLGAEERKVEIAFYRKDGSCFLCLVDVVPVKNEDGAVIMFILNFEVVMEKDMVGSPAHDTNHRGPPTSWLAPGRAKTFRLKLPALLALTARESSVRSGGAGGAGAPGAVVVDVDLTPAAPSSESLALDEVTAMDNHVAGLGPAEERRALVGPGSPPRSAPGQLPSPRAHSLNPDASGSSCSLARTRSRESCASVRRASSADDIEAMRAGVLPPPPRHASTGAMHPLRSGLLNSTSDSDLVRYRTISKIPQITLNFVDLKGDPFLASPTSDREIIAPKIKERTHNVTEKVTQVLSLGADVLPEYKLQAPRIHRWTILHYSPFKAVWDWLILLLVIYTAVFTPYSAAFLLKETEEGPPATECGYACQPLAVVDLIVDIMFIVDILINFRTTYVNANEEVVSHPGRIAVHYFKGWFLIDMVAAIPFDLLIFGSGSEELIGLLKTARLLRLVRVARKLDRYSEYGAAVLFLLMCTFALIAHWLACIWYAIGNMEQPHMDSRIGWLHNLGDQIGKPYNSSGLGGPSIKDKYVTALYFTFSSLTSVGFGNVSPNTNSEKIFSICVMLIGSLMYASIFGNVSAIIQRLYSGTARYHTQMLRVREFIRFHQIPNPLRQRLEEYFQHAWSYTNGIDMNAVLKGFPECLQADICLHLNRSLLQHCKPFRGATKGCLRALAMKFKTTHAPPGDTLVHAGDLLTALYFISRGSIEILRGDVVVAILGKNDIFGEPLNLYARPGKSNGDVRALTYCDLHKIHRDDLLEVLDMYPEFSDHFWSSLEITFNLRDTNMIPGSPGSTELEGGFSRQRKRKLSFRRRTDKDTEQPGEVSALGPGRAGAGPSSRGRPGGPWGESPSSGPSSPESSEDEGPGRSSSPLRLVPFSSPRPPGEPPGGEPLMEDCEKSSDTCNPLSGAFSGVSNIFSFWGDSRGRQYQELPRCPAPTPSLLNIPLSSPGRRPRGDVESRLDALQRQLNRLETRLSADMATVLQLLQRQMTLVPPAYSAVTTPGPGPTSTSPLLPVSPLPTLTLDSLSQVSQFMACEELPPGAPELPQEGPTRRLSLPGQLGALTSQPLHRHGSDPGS
row,SMILES,"hERG current change (%, negative = inhibition) at 10uM [%]"
1,CCc1nc(SCc2ccc(OC)c(Br)c2)n[nH]1,-1.48
2,Cc1ccc(S(=O)(=O)NCCCN(C)C)cc1.Cl,-10.7
3,Cn1cccc1/C=N/n1c(-c2ccccc2)n[nH]c1=S,-6.72
4,Cc1cc2nc3n(c2cc1C)CC1CC(C(=O)NCC2CC2)N(C)C31 (stereo not shown),-1.83
5,Cc1ccc(C(=O)O)cc1NC(=O)Nc1cccc2ccccc12,16.8
6,CC(=O)Nc1ccc(S(=O)(=O)N(C)c2ccc(OCC(=O)OCC(=O)NCc3ccco3)cc2)cc1,9.09
7,CC(C)NC(=O)COC(=O)c1ccccc1CSC1=NCCS1,20.8
8,Cc1nnc2n(C3CCCCC3)c(=O)c3c4c(sc3n12)COC(C)(C)C4,2.31
9,COc1cccc(NC(=S)N2CCN(C)CC2)c1,10.8
10,COC(=O)CSc1nnc2n1C(C)(C)Cc1ccccc1-2,3.46
11,N#CC(/C(=N/S(=O)(=O)c1cccs1)c1ccccc1)c1nc2ccccc2[nH]1 (stereo not shown),10.6
12,CN(Cc1ccccc1)C(=O)CN(Cc1ccccc1)S(C)(=O)=O,-4.6
13,Cn1c(SCC(=O)c2ccc3c(c2)NC(=O)CO3)nc2ccccc21,3.75
14,COC(=O)c1nnn(-c2nonc2N)c1COc1ccc(C=O)cc1OC,-13.9
15,CC(=O)Cc1nsc(NC(=O)c2ccc(Cl)cc2Cl)n1,23.7
16,OCCN1CCN(c2ncnc3c2c(-c2ccccc2)cn3-c2ccc(F)cc2)CC1,-74.3
17,Cc1nc2ccc(Br)cn2c1C(=O)N/N=C\c1ccc(C(C)C)cc1,21
18,COCCCn1c(SCC(N)=O)nnc1-c1ccccc1,-0.75
19,CS(=O)(=O)N(CC(=O)N1CCN(Cc2ccc3c(c2)OCO3)CC1)c1ccc2c(c1)OCO2,-58.9
20,O=C(NS(=O)(=O)Oc1ccc(F)c(Cl)c1)OC[C@@H]1CCCN2CCCCC12 (stereo partly shown),14.7
21,CCc1nnc(NS(=O)(=O)c2ccc(N=CC3=C(O)CC(C)(C)CC3=O)cc2)s1,33.3
22,CC(C)Oc1ccc(C(=O)N2CCN(C(=O)c3ccco3)CC2)cc1,-29.6

row,SMILES,"hERG current change (%, negative = inhibition) at 10uM [%]"
1,O=C(Nc1cccc(C(=O)N2CCOCC2)c1)c1ccccc1Br,11.8
2,Cc1cc(C)c(C#N)c(N2CCOCC2)n1,5.48
3,COc1ccc(NC(=O)CSc2n[nH]c(-c3ccccn3)n2)cc1,14.9
4,CCn1c(SCC(=O)NCCOC)nc2sc3c(c2c1=O)CCCC3,4.73
5,O=C(CCN1C(=O)/C(=C/c2ccccc2Cl)SC1=S)NC1CCCC1,19.4
6,Cc1cc(/C=C2\C(=O)NC(=O)N(c3ccc(Cl)cc3)C2=O)c(C)n1C,8.22
7,O=C(N/N=C/c1ccccn1)c1ccncc1,13.7
8,CC(=C1C(=O)c2ccccc2C1=O)N1CCN(CCN=CC2=C(O)CC(C)(C)CC2=O)CC1,-42.3
9,CCOC(=O)/C(=N/Nc1ccc(C)cc1)S(=O)(=O)c1ccc(Cl)cc1,-1.52
10,C#CCOCCOCCOCCNc1nc(N2CCN(C(=O)[C@H](CCC(=O)O)n3cc(C(N)CO)nn3)CC2)nc(N2CCN(C(=O)[C@H](Cc3ccc(O)cc3)n3cc(C(N)CC(C)C)nn3)CC2)n1.Cl (stereo partly shown),19.3
11,CSc1nc(NC(C)(C)C)nc(N2CCOCC2)n1,-4.03
12,O=C(O)c1ccccc1-c1ccccc1C(=O)Nc1nccs1,25.4
13,Nc1oc2ccc(F)cc2c(=O)c1C=O,20.5
14,CC(=O)NC1C(=O)N(CCN2CCOCC2)c2ccc(Cl)cc21.Cl (stereo not shown),5.61
15,CCC(=O)Nc1nc2ccccc2n1Cc1ccc(Cl)cc1,9.4
16,O=C(O)CC1(CC(=O)Nc2cccc(C(=O)O)c2)CCCC1,20.8
17,Cc1ccc(COc2ccc(C(=O)NN)cc2)cc1,19.6
18,CCOC(=O)C(=O)NCc1ccc(/C=C2/N=C(C)C(C(=O)OCC)=C2O)o1,-11.3
19,CC(C)(C)NC(=O)Cn1c(=O)n(CC(=O)NC(C)(C)C)c2ccccc21,15.6
20,CCOC(=O)C1(Cc2ccc(OC)cc2)CCN(C(=O)CN2CCN(CC)CC2)CC1,-39.3
21,COc1ccccc1N=C(C)C1=C(O)CSC1=O,11.8
22,COC(=O)c1nc2n(n1)C(c1cccc(Cl)c1)C1=C(CCCC1=O)N2 (stereo not shown),-2.87

row,SMILES,"hERG current change (%, negative = inhibition) at 10uM [%]"
1,CCCCCC(=O)Nc1cccc(-c2nc3ncccc3o2)c1,-37.8
2,CC1=C(C(=O)OCC(C)C)C(c2cc3c(cc2Br)OCO3)NC(=O)N1C (stereo not shown),-35.8
3,COc1ccc(N2C(=O)C3C4C=CC(CC4)C3C2=O)c([N+](=O)[O-])c1 (stereo not shown),-5.27
4,CCCOC(=O)Nc1ccc(S(=O)(=O)Nn2cnnc2)cc1,4.46
5,Cc1ccc(C(=O)N2CCN(c3ccc([N+](=O)[O-])c(N4CCOCC4)c3)CC2)cc1,-60
6,CN(CC(=O)NCCc1ccc(F)cc1)Cc1ccccc1,-2.73
7,COCCNC(=S)N1CCN(Cc2cccc(OC)c2)CC1,25.4
8,COC(=O)CN=Cc1c(O)n(-c2ccc(Cl)cn2)c(=O)c2ccccc12,-14.4
9,Cc1ccc(CNC(=O)CSc2nc3n[nH]c(C)c3c(=N)n2-c2cccc(C)c2)cc1,-29.2
10,COc1ccc(OC)c(NC(=O)C2COc3ccccc3O2)c1 (stereo not shown),7.46
11,O=C(CCn1c(SCC(=O)c2ccccc2)nc2ccccc2c1=O)NCc1ccc(F)cc1,-3.91
12,O=C(COC(=O)CNS(=O)(=O)c1ccc(Br)cc1Cl)NC1CC1,-0.681
13,O=C(c1ccc2c(=O)n3c(nc2c1)CCCCC3)N1CCN(c2ccc(F)cc2)CC1,-42.1
14,CCN(Cc1cnn(C)c1)C(=O)c1cc(COc2ccc3c(c2)CCCC3)on1,-18.4
15,CCC1(C)Nc2ccccc2C(=O)N1O (stereo not shown),14.4
16,COc1ccccc1/C=C/C=N/NC(=O)CCn1nnc2ccccc21,14.6
17,Cn1cnnc1SCC(=O)Nc1ccc2nc(SCc3ccccc3Cl)sc2c1,-8.39
18,CN(C)CCCNC(=S)N(CCO)Cc1cc2cc3c(cc2[nH]c1=O)OCO3,13.4
19,O=C(Cc1cn(-c2ccccc2)nc1-c1ccccc1)N1CCCCC1,-18.3
20,CN(CCOc1ccccc1)C(=O)c1cc(COc2c(F)cccc2F)on1,1.44
21,COc1ccc(CCNCc2cc(C)n(-c3ccc(OC)cc3)c2C)cc1.O=C(O)C(=O)O,-41.7
22,Cc1ccc(CN2CCC(n3nccc3NC(=O)c3ccc4c(c3)OCO4)CC2)o1,-17.2

row,SMILES,"hERG current change (%, negative = inhibition) at 10uM [%]"
1,COc1c(C)cc(C(=O)C2CCCN(C(=O)c3cc(C)on3)C2)cc1C (stereo not shown),-16.3
2,CC(C)c1nnc(NC(=O)CCC(=O)N2CCN(C3c4ccccc4-c4ccccc43)CC2)s1,2.78
3,O=C(NCC(=O)N1CCC2(CC1)NCCc1[nH]cnc12)c1ccccc1F,7.1
4,COCCOC(=O)c1[nH]c2c(c1C)C(=O)CC(c1ccc(N(C)C)cc1)C2 (stereo not shown),2.41
5,CCC(=O)Nc1c(-c2ccc(OC)cc2)c(=O)c2ccccc2n1C,9.4
6,CC1(c2ccccc2)NC(=O)N(CC(=O)Nc2ccccc2C(=O)N2CCCCC2)C1=O (stereo not shown),19.7
7,COc1ccccc1OCCC(=O)OCC(=O)c1[nH]c(C)c(C(C)=O)c1C,-8.55
8,COc1ccc(CN2CCC(n3nccc3NC(=O)C3CC3)CC2)cc1O,-58.8
9,O=S(=O)(NCCSc1ccccc1)c1cccs1,-13.9
10,CC(C)Oc1ccccc1OCCCOc1cccc2cccnc12,-32.7
11,CC(=O)Nc1cccc(NC(=O)CSc2nccn2Cc2ccccc2)c1,9.95
12,O=C(COc1ccc(F)cc1Br)NCc1ccccn1,-1.47
13,CCOC(=O)C1=C(N)OC2=C(C(=O)CC(C)(C)C2)C1c1ccc(C)s1 (stereo not shown),-42.3
14,COc1cccc(OC)c1C(=O)NC(=S)NCc1ccccc1,16.6
15,O=C(Nc1cccc(S(=O)(=O)NC2=NCCC2)c1)c1ccc(=O)[nH]c1,10.7
16,Cc1ccc(C(=O)N/C(=C\c2ccco2)C(=O)NCCc2c[nH]c3ccccc23)cc1,-39.4
17,Cc1cccc(NC(=O)c2ccccc2C(=O)Nc2cccc(C)c2)c1,-5.94
18,CC1=C([N+](=O)[O-])C(c2ccc3c(c2)OCO3)N(C)C(=O)N1C (stereo not shown),-0.318
19,O=Cc1ccnc(-c2ccc(OC(=O)c3ccco3)cc2)n1,7.26
20,COc1ccc(N(CC(=O)Nc2ccc(Cl)cc2)S(=O)(=O)c2c(C)n[nH]c2C)cc1,-20.4
21,O=C(O)CCNS(=O)(=O)c1ccccc1C(F)(F)F,9.99
22,C=CCCC(=O)NC1CCCc2c1cnn2-c1ccccc1F (stereo not shown),-2.92
